According to PubChem BioAssay AID902 (National Center for Advancing Translational Sciences (NCATS), 2007):
Among all 130,000 compounds or so, about 1,900 (1.5%) were called active. The inconclusive results got no clear call from the source; some entries with a clear call stand among them for comparison. Calls come from the whole dose curve; as a rule, active = well fitted cell-killing curve with a large enough effect; inconclusive = small, poorly fitted or top-dose-only effect; inactive = no such curve, though single readings can be large or run the other way. Potencies beside an inconclusive call are fits to weak or partial responses and may not hold up.
% is set by controls: 0 for no effect and ±100 for the full control effect; potency is the fitted concentration of half-maximal effect; tags give direction and shape of the fitted curve.

Test: qHTS Screen for Compounds that Selectively Target Cancer Cells with p53 Mutations: Cytotoxicity of p53ts Cells at the Nonpermissive Temperature; note: nearly all actives have a fitted effect of over 55% in size
Settings: H1299-p53A138V viability at 39C, ATP luminescence, 24 h; activity change, negative = cell killing: at 46.1 µM (top of the series)
With `O=C(Cn1cc(S(=O)(=O)c2ccc(Cl)cc2)c(=O)c2ccccc21)Nc1ccc2c(c1)OCO2` the Potency was inconclusive: 31.6 µM [cytotoxic, single point]. For `COc1ccc(/C=C/c2nc(C#N)c(N3CCCCCC3)o2)cc1OC`, the activity change, negative = cell killing was inconclusive: -30% [cytotoxic]. For `COc1ccc(C)cc1NS(=O)(=O)c1ccc(-c2cnc(C3CC3)o2)cc1`, the Potency was inconclusive: 31.6 µM [cytotoxic, single point]. In the case of `CC(=O)c1cccc(NC(=O)Cn2c(=O)oc3cc(S(=O)(=O)NCc4ccccc4)ccc32)c1`, the Potency is reported as “inactive”. With `COc1cccc(C(=O)Nc2ccc3nc(N4CCN(c5ncccn5)CC4)cc(C)c3c2)c1OC` the Potency was inconclusive: 7.94 µM [cytotoxic, partial curve]. With `COc1ccc(C2c3c(n(C)c4ccccc34)C(=O)N2CC(=O)Nc2ccccc2Cl)cc1` (configuration not stated) the Potency was inconclusive: 0.891 µM [cytotoxic, partial curve]. For `O=C(c1ccc(Nc2nc3ccccc3n3nnnc23)cc1)N1CCN(c2ccc(F)cc2)CC1`, the Potency was “inactive”. For `O=C1CC(=O)N(Cc2ccco2)C(=O)N1`, the Potency was “inactive”. With `Cc1ccccc1C` the Potency was “inactive”. For `COc1ccc(-c2nc(N)c3ncn([C@H]4O[C@@H](CO)[C@@H](O)[C@@H]4O)c3n2)cc1`, the activity change, negative = cell killing was inactive: 0.581% [at 9.22 µM]. With `CC1CCN(c2ccc(-c3cccc(NS(=O)(=O)c4cccs4)c3)nn2)CC1` the Potency was active: 3.16 µM. With `O=C(CC1S/C(=N/N=C/c2cccs2)NC1=O)Nc1ccc(Cl)c(Cl)c1` (configuration not stated) the Potency was “inactive”. With `O=C(Nc1ccc(F)c(F)c1)c1cc(S(=O)(=O)NCc2ccc3c(c2)OCO3)ccc1F` the Potency was “inactive”. For `CCSc1nc2c([nH]c3ccccc32)c(=O)n1-c1cccc(OC)c1`, the Potency was inconclusive: 10 µM [cytotoxic, partial curve]. In the case of `c1ccc(-c2noc(-c3ccco3)n2)nc1`, the Potency is reported as inconclusive: 12.6 µM [cytotoxic, partial curve]. In the case of `Cn1nc(-c2ccc(OCC(=O)Nc3ccc(Cl)cc3)cc2)c2ccccc2c1=O`, the Potency is reported as inconclusive: 31.6 µM [cytotoxic, single point]. With `Cc1cccc(NC(=O)C2CCCN(S(=O)(=O)c3c(C)n[nH]c3C)C2)c1` (configuration not stated) the Potency was inconclusive: 10 µM [cytotoxic, partial curve]. For `Cc1ccc(CN2C(=O)C(=O)c3cc(Br)cc(C)c32)cc1`, the Potency was active: 10 µM. In the case of `C#C[C@]1(O)CC[C@@H]2[C@H]3CCc4cc(OC)ccc4[C@@H]3CC[C@@]21C`, the Potency is reported as “inactive”. With `CCOc1ccc(-n2c(=O)c3c(C)c(C)sc3n(CC(=O)Nc3ccc(CC)cc3)c2=O)cc1` the Potency was inconclusive: 31.6 µM [cytotoxic, single point]. For `O=S(=O)(c1ccc(Cl)cc1)c1nnn2c1nc(NCc1cccs1)c1sccc12`, the Potency was “inactive”. In the case of `COc1ccc(CC(=O)Nc2cc(-c3nc4cccnc4s3)ccc2C)cc1`, the Potency is reported as active: 12.6 µM. With `COc1ccc2nc(N3CCCC3)c(C#N)cc2c1` the Potency was “inactive”. In the case of `O=C(CCC1CCCC1)Nc1ccc(OCC(=O)N2CCOCC2)cc1`, the Potency is reported as inconclusive: 10 µM [cytotoxic, partial curve]. With `CCn1c(C)c(C)c2cc(C(=O)N3CCN(c4cccc(C)c4C)CC3)ccc21` the Potency was inconclusive: 31.6 µM [cytotoxic, single point]. With `COc1cccc(-n2c(SCC(=O)N3CCCc4ccccc43)nc3c([nH]c4ccccc43)c2=O)c1` the Potency was inconclusive: 0.199 µM [cytotoxic, partial curve, poor fit]. For `C=CCc1cccc(CNc2nc3ccccc3n2CC)c1O`, the Potency was inconclusive: 31.6 µM [cytotoxic, single point]. With `COc1ccc(Cl)cc1NC(=O)Cn1c(=O)n(CCCC(=O)NCCc2ccc(OC)c(OC)c2)c(=O)c2ccccc21` the Potency was inconclusive: 12.6 µM [cytotoxic, single point]. With `O=C(CCSCc1cccc(F)c1)NCc1ccccc1` the Potency was inconclusive: 0.126 µM [cytotoxic, full curve]. In the case of `O=C(NCCN1CCOCC1)c1ccc(Cc2nc3ccccc3[nH]2)cc1`, the Potency is reported as “inactive”. With `Cc1ccc(Nc2c(-c3ccc(C)cc3)nc3ccc(C)cn23)cc1` the Potency was inconclusive: 12.6 µM [cytotoxic, single point]. With `COC(=O)c1ccccc1NC(=O)CSc1nnnn1C1CCCCC1` the Potency was inconclusive: 7.94 µM [cytotoxic, partial curve]. With `CC(=O)c1sc(NC(=O)C2COc3ccccc3O2)nc1C` (configuration not stated) the Potency was inconclusive: 10 µM [cytotoxic, partial curve]. In the case of `CC(C)c1ccc(-c2nnn(CCC(=O)O)n2)cc1`, the Potency is reported as inconclusive: 10 µM [cytotoxic, partial curve]. For `O=C(CN(Cc1ccc(F)cc1)C(=O)c1ccco1)NCc1ccc(F)cc1`, the Potency was “inactive”. For `COc1cccc(-n2c(-c3ccc(C)cc3)cc3c2CC(C)(C)CC3=O)c1`, the Potency was inconclusive: 25.1 µM [cytotoxic, single point]. For `Cc1ccc2c(c1)CC(C)N2S(=O)(=O)c1nnc(NC(=O)CC(C)C)s1` (configuration not stated), the Potency was inconclusive: 1.41 µM [cytotoxic, partial curve, poor fit]. With `CC(C)c1ccc2occ(CC(=O)Nc3cccc(C(F)(F)F)c3)c2c1` the Potency was inconclusive: 31.6 µM [cytotoxic, single point]. With `CC1CCCCN1c1nc(-c2ccc(C(C)(C)C)cc2)nc2ccccc12` (configuration not stated) the Potency was active: 10 µM. In the case of `CCc1ccc(NC(=O)c2ccc3c(O)c(S(=O)(=O)c4ccccc4)c(=O)[nH]c3c2)cc1`, the Potency is reported as inconclusive: 10 µM [cytotoxic, partial curve]. For `O=C(NCC1CCN(Cc2ccccc2Cl)CC1)c1cc2ccc3cccnc3c2[nH]1`, the Potency was inconclusive: 0.01 µM [cytotoxic, full curve, poor fit]. With `COC(=O)CN1C(=O)C(C)(C)c2cc(S(=O)(=O)NCc3ccc(Cl)cc3)ccc21` the Potency was “inactive”. In the case of `Cc1ccc2scc(N3CCN(c4cccc(C(F)(F)F)c4)CC3)c(=O)c2c1`, the Potency is reported as inconclusive: 0.199 µM [cytotoxic, full curve]. With `Cc1ccc(-c2nc(-c3cc4cccc(OCc5cccc(F)c5)c4oc3=O)no2)cc1` the Potency was inconclusive: 31.6 µM [cytotoxic, single point]. In the case of `O=C(O)[C@H](Cc1cc(I)c(O)c(I)c1)C1CCCCC1`, the activity change, negative = cell killing is reported as inactive: -9.25% [at 9.22 µM]. With `CCc1ccc(NCc2cc3cc(OC)c(OC)cc3n(CC(=O)Nc3ccc(F)cc3)c2=O)cc1` the Potency was inconclusive: 0.251 µM [cytotoxic, full curve, poor fit]. For `COc1ccccc1CNc1ccnc(-c2ccc(N(C)C)cc2)n1`, the Potency was inconclusive: 12.6 µM [cytotoxic, single point]. With `COc1cccc(NC(=O)c2oc3ccccc3c2NC(=O)c2ccc(OC(C)C)cc2)c1` the Potency was active: 10 µM. For `CCCc1cc(=O)n2[nH]c(-c3ccc(Br)cc3)cc2n1`, the Potency was inconclusive: 12.6 µM [cytotoxic, partial curve]. With `CC(C)c1ccc(NC(=O)C(Cc2ccccc2)n2cccc2)cc1` (configuration not stated) the Potency was inconclusive: 25.1 µM [cytotoxic, single point]. In the case of `CCOc1ccc(NC(=O)Cn2c(=O)n(CC(=O)NCCc3ccccc3)c(=O)c3sccc32)cc1`, the Potency is reported as inconclusive: 12.6 µM [cytotoxic, single point]. In the case of `CCOc1ccc(NC(=O)c2cnn3c2NC(C)=C(C(=O)Nc2ccc(Cl)cc2)C3c2ccc(OC)c(OC)c2)cc1` (configuration not stated), the Potency is reported as inconclusive: 31.6 µM [cytotoxic, single point]. In the case of `Cc1ccccc1NC(=O)c1sc2nc3n(c(=O)c2c1C)N=C(c1ccccc1)CS3`, the Potency is reported as “inactive”. With `O=c1c(N2CCN(c3ccc(F)cc3)CC2)csc2ccc(F)cc12` the Potency was inconclusive: 0.005 µM [cytotoxic, full curve, poor fit]. In the case of `CC(C)CC(=O)Nc1cccc(-c2cn3cccnc3n2)c1`, the Potency is reported as inconclusive: 10 µM [cytotoxic, partial curve]. In the case of `CC1CCN(S(=O)(=O)c2ccc3nc(Nc4cccc(F)c4)ccc3c2)CC1`, the Potency is reported as inconclusive: 35.5 µM [cytotoxic, single point]. In the case of `CC(=O)c1ccc(NC(=O)CSc2nnc3c(n2)[nH]c2ccccc23)cc1`, the Potency is reported as inconclusive: 15.8 µM [cytotoxic, single point]. In the case of `Cc1cccc(S(=O)(=O)C(C#N)c2nc3ccccc3nc2N2CC(C)OC(C)C2)c1` (configuration not stated), the Potency is reported as “inactive”. In the case of `C=CCn1c2ccccc2c2nnc(SCCCn3c(=O)[nH]c4ccccc43)nc21`, the Potency is reported as inconclusive: 31.6 µM [cytotoxic, single point]. With `N#Cc1c(-n2ncnc2-c2ccccc2Cl)sc2c1CCCCC2` the Potency was “inactive”. For `CCOC(=O)c1ccc(N2C(=O)c3n[nH]c(-c4cccs4)c3C2c2cccc(O)c2)cc1` (configuration not stated), the Potency was inconclusive: 25.1 µM [cytotoxic, single point]. For `CCOc1ccccc1NC(=O)CSc1nc2cc(OC)c(OC)cc2c2nc(CCn3c(C)nc4ccccc43)nn12`, the Potency was active: 5.01 µM. With `CCCOc1ccc(CNC(=O)CCCN2C(=O)CSc3c2c(C)nn3-c2ccccc2)cc1` the Potency was inconclusive: 1 µM [cytotoxic, full curve, poor fit]. With `O=C(O)c1ccccc1Nc1cccc(OCc2ccc3ccccc3n2)c1` the Potency was inconclusive: 31.6 µM [cytotoxic, single point]. With `Cc1cc(C)nc(Nc2ccc(N3CCOCC3)cc2)n1` the Potency was inconclusive: 15.8 µM [cytotoxic, single point]. With `CCc1ccccc1NC(=O)c1nc2nc(C)cc(C(F)F)n2n1` the Potency was “inactive”. In the case of `Cc1ccccc1OCC(=O)N/N=C/c1ccc([N+](=O)[O-])o1`, the Potency is reported as inconclusive: 28.2 µM [cytotoxic, single point].
